Measurements published in article PMC4448132.
No constants are given. Whether binding was seen depends on the method and setting. In cells and extracts the contact can be indirect. Some binding calls cover weakened binding; strength is not graded here.

Sequences of proteins named here, by UniProt entry; tags and fusion partners are left off.
UniProt P35523: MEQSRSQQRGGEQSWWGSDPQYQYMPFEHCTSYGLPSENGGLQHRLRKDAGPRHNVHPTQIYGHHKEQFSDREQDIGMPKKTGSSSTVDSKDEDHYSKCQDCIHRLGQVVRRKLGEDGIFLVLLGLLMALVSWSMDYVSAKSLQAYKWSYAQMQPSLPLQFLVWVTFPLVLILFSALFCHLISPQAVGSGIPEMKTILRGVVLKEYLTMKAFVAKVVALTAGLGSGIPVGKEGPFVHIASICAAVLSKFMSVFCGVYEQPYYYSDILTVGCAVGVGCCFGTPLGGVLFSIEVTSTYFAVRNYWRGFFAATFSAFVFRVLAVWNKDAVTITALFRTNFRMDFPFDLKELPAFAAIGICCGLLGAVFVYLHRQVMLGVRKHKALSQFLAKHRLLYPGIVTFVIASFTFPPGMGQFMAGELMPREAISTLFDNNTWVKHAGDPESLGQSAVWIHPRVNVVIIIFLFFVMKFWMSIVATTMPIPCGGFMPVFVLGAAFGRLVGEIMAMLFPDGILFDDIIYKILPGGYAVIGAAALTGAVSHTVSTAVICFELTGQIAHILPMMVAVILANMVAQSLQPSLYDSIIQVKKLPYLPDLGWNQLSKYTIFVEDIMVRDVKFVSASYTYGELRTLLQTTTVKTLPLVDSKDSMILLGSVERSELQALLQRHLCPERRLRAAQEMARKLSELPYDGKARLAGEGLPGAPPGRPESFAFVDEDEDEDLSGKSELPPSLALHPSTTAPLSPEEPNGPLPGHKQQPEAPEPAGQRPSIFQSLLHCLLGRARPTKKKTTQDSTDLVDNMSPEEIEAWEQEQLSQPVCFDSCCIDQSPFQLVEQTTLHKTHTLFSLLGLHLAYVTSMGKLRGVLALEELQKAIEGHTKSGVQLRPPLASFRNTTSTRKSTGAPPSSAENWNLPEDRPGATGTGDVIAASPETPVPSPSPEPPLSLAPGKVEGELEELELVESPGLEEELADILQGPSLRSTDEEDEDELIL
UniProt Q13619: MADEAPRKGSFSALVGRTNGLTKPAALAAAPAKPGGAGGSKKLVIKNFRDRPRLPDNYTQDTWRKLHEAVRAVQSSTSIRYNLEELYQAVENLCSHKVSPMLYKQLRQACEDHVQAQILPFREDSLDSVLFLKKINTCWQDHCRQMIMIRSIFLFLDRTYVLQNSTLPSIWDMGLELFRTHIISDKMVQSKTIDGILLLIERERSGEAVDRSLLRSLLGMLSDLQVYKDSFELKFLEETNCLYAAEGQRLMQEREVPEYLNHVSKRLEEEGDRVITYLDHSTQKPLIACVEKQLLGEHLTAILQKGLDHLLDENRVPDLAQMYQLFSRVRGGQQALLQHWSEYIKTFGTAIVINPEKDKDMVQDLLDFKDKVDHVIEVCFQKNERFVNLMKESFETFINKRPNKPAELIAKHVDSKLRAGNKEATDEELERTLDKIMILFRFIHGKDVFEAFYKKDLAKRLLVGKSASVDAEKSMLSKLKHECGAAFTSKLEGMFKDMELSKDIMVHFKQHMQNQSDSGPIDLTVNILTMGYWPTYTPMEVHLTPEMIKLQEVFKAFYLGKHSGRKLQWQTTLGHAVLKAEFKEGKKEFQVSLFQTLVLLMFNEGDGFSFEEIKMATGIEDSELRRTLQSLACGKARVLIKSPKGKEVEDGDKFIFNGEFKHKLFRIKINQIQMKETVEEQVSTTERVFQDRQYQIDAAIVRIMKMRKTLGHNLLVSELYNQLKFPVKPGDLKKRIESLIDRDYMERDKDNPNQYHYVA
UniProt Q13620: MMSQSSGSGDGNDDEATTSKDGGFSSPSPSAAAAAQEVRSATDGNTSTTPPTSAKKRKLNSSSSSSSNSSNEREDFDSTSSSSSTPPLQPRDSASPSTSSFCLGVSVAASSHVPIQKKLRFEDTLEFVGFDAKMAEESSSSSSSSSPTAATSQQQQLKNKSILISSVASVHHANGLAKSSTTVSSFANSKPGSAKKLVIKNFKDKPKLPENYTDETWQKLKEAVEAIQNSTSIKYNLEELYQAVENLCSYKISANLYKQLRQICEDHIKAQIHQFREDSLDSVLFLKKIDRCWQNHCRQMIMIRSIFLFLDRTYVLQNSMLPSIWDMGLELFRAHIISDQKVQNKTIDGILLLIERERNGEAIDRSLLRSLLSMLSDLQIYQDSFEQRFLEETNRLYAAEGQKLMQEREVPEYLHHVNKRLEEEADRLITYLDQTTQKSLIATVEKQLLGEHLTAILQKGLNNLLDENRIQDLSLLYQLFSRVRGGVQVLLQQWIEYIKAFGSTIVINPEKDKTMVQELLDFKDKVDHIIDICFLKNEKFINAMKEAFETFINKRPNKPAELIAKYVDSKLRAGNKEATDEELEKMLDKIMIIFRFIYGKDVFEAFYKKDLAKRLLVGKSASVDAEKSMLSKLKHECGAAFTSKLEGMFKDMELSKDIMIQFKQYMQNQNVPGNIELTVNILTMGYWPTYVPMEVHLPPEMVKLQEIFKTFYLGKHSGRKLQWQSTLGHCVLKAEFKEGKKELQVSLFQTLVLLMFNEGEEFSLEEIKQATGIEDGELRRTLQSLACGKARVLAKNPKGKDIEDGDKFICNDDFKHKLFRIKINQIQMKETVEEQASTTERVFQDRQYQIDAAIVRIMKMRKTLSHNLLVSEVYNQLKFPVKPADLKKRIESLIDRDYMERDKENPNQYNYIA
UniProt Q56AP7: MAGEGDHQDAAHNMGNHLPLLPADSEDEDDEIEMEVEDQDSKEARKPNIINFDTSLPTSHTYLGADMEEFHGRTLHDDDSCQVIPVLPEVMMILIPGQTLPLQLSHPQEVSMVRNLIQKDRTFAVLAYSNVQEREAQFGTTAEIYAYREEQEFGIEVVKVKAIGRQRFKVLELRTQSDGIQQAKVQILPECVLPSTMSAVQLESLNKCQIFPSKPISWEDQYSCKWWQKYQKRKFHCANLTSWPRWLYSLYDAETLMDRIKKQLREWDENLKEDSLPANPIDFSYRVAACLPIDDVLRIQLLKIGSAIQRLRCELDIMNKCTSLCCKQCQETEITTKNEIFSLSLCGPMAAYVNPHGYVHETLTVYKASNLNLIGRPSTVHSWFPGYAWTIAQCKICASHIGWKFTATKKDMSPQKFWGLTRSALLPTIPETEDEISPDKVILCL
UniProt P35524: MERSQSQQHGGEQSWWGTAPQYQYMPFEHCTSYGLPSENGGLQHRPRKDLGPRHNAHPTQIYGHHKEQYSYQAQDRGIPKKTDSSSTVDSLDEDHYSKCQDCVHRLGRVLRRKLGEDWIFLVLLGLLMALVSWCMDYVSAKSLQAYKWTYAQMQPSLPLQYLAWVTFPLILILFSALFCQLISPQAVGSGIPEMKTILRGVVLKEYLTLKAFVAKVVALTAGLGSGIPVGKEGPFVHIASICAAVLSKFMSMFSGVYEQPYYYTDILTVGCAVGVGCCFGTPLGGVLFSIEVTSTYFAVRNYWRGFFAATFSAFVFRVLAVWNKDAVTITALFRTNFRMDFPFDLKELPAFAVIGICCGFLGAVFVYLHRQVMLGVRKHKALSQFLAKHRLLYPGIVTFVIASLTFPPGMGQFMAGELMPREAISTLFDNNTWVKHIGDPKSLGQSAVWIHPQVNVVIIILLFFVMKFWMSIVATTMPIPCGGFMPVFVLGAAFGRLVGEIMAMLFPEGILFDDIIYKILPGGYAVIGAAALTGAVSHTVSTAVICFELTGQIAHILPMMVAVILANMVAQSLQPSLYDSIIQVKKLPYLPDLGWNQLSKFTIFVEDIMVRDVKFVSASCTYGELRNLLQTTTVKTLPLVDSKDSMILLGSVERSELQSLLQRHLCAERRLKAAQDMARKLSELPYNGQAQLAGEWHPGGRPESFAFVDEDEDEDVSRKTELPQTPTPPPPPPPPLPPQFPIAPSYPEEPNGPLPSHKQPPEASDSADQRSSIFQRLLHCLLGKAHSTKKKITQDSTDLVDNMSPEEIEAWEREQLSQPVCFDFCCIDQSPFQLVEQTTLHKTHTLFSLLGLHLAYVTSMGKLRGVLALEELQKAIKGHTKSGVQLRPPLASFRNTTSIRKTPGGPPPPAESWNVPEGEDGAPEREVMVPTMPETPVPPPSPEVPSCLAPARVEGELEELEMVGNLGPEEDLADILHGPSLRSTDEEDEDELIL
UniProt Q16531: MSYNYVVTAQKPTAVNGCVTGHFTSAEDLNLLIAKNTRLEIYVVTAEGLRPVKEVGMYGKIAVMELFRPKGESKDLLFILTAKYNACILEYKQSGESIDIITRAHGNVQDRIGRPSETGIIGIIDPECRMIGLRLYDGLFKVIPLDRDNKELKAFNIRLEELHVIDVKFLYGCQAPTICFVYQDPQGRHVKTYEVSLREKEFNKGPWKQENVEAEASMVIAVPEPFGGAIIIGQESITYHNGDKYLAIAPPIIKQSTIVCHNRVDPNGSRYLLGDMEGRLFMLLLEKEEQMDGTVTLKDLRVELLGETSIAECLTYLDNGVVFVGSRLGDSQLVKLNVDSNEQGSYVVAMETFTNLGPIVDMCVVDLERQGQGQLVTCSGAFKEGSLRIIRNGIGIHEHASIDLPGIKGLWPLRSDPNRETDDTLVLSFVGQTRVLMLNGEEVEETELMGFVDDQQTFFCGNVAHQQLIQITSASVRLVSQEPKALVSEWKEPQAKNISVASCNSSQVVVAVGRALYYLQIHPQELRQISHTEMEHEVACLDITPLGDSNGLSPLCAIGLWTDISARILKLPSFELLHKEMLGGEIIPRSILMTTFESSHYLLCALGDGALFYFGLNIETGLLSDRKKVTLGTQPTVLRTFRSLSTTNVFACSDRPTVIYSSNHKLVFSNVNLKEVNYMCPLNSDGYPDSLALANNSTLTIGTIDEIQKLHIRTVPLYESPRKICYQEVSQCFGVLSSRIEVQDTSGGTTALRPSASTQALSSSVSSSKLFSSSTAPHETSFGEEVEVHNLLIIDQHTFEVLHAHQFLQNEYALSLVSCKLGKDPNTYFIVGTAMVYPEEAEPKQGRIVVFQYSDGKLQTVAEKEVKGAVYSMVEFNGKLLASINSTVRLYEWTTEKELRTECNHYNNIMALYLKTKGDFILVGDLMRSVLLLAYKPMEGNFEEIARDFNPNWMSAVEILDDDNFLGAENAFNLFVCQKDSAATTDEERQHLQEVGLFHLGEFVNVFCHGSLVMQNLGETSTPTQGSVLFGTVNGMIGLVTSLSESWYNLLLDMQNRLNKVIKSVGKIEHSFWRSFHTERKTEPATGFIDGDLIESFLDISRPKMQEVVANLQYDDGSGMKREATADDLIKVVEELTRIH
UniProt Q9ESW0: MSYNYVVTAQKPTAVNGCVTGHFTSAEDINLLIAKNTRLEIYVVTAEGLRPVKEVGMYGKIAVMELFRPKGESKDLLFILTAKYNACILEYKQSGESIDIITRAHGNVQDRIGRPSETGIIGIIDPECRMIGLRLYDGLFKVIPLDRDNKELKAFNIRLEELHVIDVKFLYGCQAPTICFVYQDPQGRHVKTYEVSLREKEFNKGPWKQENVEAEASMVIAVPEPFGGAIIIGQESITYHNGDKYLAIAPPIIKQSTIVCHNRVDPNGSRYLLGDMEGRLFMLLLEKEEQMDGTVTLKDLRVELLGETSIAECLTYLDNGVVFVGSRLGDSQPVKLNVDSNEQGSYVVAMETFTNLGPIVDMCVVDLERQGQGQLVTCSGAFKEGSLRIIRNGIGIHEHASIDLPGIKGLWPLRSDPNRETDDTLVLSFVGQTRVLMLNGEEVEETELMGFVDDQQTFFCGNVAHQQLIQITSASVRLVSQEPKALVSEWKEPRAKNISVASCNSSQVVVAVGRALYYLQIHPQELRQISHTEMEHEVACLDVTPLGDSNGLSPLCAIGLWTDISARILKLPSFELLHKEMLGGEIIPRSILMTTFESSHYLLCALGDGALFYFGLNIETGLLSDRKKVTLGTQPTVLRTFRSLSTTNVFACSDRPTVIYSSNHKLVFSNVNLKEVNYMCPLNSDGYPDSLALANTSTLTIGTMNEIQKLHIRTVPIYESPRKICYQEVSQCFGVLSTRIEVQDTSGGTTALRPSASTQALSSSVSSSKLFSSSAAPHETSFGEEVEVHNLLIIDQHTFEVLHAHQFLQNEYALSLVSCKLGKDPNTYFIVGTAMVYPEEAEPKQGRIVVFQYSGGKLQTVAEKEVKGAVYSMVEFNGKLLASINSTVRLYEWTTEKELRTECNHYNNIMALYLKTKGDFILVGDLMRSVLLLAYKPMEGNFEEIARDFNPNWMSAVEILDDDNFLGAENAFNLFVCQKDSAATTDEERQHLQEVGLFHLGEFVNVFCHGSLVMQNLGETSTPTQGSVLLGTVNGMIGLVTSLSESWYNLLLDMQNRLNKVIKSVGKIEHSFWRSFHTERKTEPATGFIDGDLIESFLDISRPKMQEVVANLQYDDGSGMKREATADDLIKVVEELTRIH

What was measured:
[1] = molecular target: Myc-tagged human CLC-1 chloride channel (human) (UniProt P35523); experiment: co-IP; HEK293T cells co-transfected, 10 uM MG132 for 24 hrs; lysed in IP buffer with 1% Triton X-100, 100 mM NaCl, pH 7.5; protein G sepharose beads pre-coated with anti-Myc or anti-HA antibody, 16 hrs at 4 °C; immunoblot
[2] = molecular target: Myc-tagged human cullin 4A (human) (UniProt Q13619); experiment: as above
[3] = molecular target: Myc-tagged human cullin 4B (human) (UniProt Q13620); experiment: as above
[4] = molecular target: HA-tagged rat cereblon (rat) (UniProt Q56AP7); experiment: as above
[5] = molecular target: endogenous CLC-1 channel of rat skeletal muscle (rat (endogenous in skeletal muscle)) (UniProt P35524); experiment: co-IP; rat skeletal muscle (vastus lateralis) lysate in T-PER reagent; anti-CLC-1 antibody 2 hrs at 4 °C, then protein A sepharose beads 16 hrs at 4 °C; immunoblot

“Flag-tagged human damage-specific DNA binding protein 1 (from UniProt Q16531 1-1140)” was tested, and the binding [1] was “binds”.
“Flag-tagged human damage-specific DNA binding protein 2 (from UniProt Q92466 1-427)” was tested, and the binding [1] was “no binding”.
For “HA-tagged human CLC-1 chloride channel (from UniProt P35523 1-988)”, the binding [2] was “binds” and the binding [3] was “binds”.
“Myc-tagged human CLC-1 chloride channel (from UniProt P35523 1-988)” was tested, and the binding [4] was “binds”.
In the case of “endogenous CUL4B of rat skeletal muscle (from UniProt D3ZK73 1-971)”, the binding [5] is reported as “binds”.
With “endogenous DDB1 of rat skeletal muscle (from UniProt Q9ESW0 1-1140)” the binding [5] was “binds”.
“endogenous cereblon of rat skeletal muscle (from UniProt Q56AP7 1-445)” was tested, and the binding [5] was “binds”.
